Hit rate of the full screen: of about 110,000 compounds, about 40 (0.04%) were called active. The inconclusive results got no clear call from the source; some entries with a clear call stand among them for comparison. The call rests on the fitted dose curve; in most records, active means well fitted curve in the direction sought with a large enough effect in the signal ratio (not every such curve was filed as active); inconclusive means small, poorly fitted or top-dose-only effect, or a change in a side signal; inactive means flat fitted curve, though single readings scatter; the % refers to the signal ratio. A potency beside an inconclusive call is a rough fit, not a confirmed value.
Assay: IkB Signaling
Details: ABC-DLBCL IkBa-CBG/CBR dual luciferase ratio (green luciferase fused to IkBa over red control in OCI-Ly3 lymphoma cells), 4 h; IkBa stabilization activation: at 57.1 µM (top of the series), scaled: untreated 0%, proteasome inhibitor 100% unless noted
Outline: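 Luminescence ratio of IκBα-fused green versus native red beetle luciferase in OCI-Ly3 cells, 4 h post-doxycycline with compound; red signal alone, scaled from basal (0%) to zero light (-100%), flagged nonspecific or cytotoxic effects.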
For `O=C(Nc1nnc(CCN2CCOCC2)s1)C1CCCCC1`, the IkBa stabilization activation was “inactive”.
With `COc1ccc(N2C(=O)CSC23C(=O)N(CC(=O)NC2CCCCC2)c2ccccc23)cc1` (configuration not stated) the IkBa stabilization activation was inconclusive: -1.89% [signal inhibitor].
For `O=C(NCCc1c[nH]c2ccccc12)C1Cc2ccccc2CN1C(=O)c1ccco1` (configuration not stated), the IkBa stabilization activation was inconclusive: 5.67% [signal inhibitor].
With `CC(O)/C=C/c1cccc[n+]1C` (configuration not stated) the IkBa stabilization activation was “inactive”.
In the case of `COc1cccc(NC(=O)Cn2c(=O)n(-c3ccc(CC(=O)NCC4CCCO4)cc3)c(=O)c3ccccc32)c1` (configuration not stated), the IkBa stabilization activation is reported as inconclusive: 3.11% [signal inhibitor].
With `CC(C)(C)n1nnnc1CN(Cc1ccco1)Cc1cc2cc3c(cc2[nH]c1=O)OCO3` the IkBa stabilization activation was “inactive”.
In the case of `COc1cc(NC(=O)CSCc2cnn(-c3ccccc3)c2-n2cccc2)cc(OC)c1`, the IkBa stabilization activation is reported as inconclusive: 2.86% [signal inhibitor].
With `COc1ccc(C(=O)OCCN2CCOCC2)cc1OC` the IkBa stabilization activation was “inactive”.
For `COc1cccc(C(=O)N2CCN(C(=O)c3cccc(F)c3)CC2)c1`, the IkBa stabilization activation was “inactive”.
With `Cc1cc(C)cc(NC(=O)NCCn2nnc3cc(S(=O)(=O)N(C)C)ccc32)c1` the IkBa stabilization activation was inconclusive: 2.35% [signal inhibitor].
For `CSc1nc(C)c(C(=O)Nc2ccccc2)c(C)c1C#N`, the IkBa stabilization activation was inconclusive: 15.9% [signal inhibitor].
With `CCOc1ccc(C(=O)OCc2cc(=O)n3nc(C4CCCCC4)sc3n2)cc1` the IkBa stabilization activation was inconclusive: 6.25% [signal inhibitor].
In the case of `COc1ccc(C2c3c(-c4ccccc4O)n[nH]c3C(=O)N2Cc2ccco2)cc1` (configuration not stated), the IkBa stabilization activation is reported as inconclusive: -1.62% [signal inhibitor].
With `O=C(Nc1ccccc1C(=O)OCc1cc(=O)n2nc(C3CC3)sc2n1)c1cccc(Cl)c1` the IkBa stabilization activation was inconclusive: 2.53% [signal inhibitor].
With `Cc1ccc(Cl)cc1NC(=O)Cn1c(=O)c(CNc2ccccc2)cc2cc3c(cc21)OCCO3` the IkBa stabilization activation was inconclusive: 4.16% [signal inhibitor].
In the case of `CCCCn1c(-c2ccc(S(=O)(=O)N3CCOCC3)cc2)csc1=Nc1ccccc1`, the IkBa stabilization activation is reported as inconclusive: 9.09% [signal inhibitor].
With `CC(C)CC(c1nnnn1Cc1ccco1)N1CCN(c2cccc(Cl)c2)CC1` (configuration not stated) the IkBa stabilization activation was “inactive”.
In the case of `O=C(CCCn1c(=O)c2cccn2c2cccnc21)NCCc1ccc(Cl)cc1`, the IkBa stabilization activation is reported as inconclusive: -1.14% [signal inhibitor].
With `Cc1cc(Br)ccc1NC(=O)c1cc2c(s1)-c1ccccc1SC2` the IkBa stabilization activation was inconclusive: 2.99% [signal inhibitor].
In the case of `CCOC(=O)c1ccccc1NC(=O)CN(c1ccccc1OC)S(=O)(=O)c1ccc(C)cc1`, the IkBa stabilization activation is reported as inconclusive: 1.2% [signal inhibitor].
In the case of `CS(=O)(=O)N(CC(=O)N1CCN(c2ccccc2)CC1)c1cc(C(F)(F)F)ccc1Cl`, the IkBa stabilization activation is reported as inconclusive: 3.92% [signal inhibitor].
For `COc1cc(/C=C/c2nc(C#N)c(NC3CCCCC3)o2)cc(OC)c1OC`, the IkBa stabilization activation was inconclusive: 17.1% [signal inhibitor].
For `COc1ccc(-n2ccnc(NCCc3ccc(S(N)(=O)=O)cc3)c2=O)cc1`, the IkBa stabilization activation was “inactive”.
With `O=C(/C=C/c1cn(CC(O)CN2CCCCCC2)c2ccccc12)c1ccccc1` (configuration not stated) the IkBa stabilization activation was inconclusive: 11.1% [signal inhibitor].
In the case of `Cc1ccccc1C(=O)Nc1ccc(Br)cn1`, the Potency is reported as inconclusive: 15.8 µM [signal inhibitor, partial curve].
For `Cc1ccc(C)c(NC(=O)CSc2cn(CC(=O)N3CCCC3)c3ccccc23)c1`, the IkBa stabilization activation was inconclusive: 3.59% [signal inhibitor].
With `CCOc1ccc(NC(=O)Cc2csc(COc3cccc(C)c3)n2)cc1` the IkBa stabilization activation was “inactive”.
For `CCOc1ccccc1C1C(C(=O)Nc2ccccc2OC)=C(C)Nc2nc3ccccc3n21` (configuration not stated), the IkBa stabilization activation was inconclusive: 11% [signal inhibitor].
In the case of `CCOc1ccc(NC(=O)Cn2c(C)ccc(C#N)c2=O)cc1`, the IkBa stabilization activation is reported as “inactive”.
In the case of `CCc1nnc2c3ccccc3nc(N3CCN(c4ccc(C)cc4C)CC3)n12`, the IkBa stabilization activation is reported as inconclusive: -1.71% [signal inhibitor].
With `O=C(O)C1CCCN1S(=O)(=O)c1cccc2cccnc12` (configuration not stated) the IkBa stabilization activation was “inactive”.
For `O=C(NCCc1csc(-c2cccnc2)n1)c1cccc(C(F)(F)F)c1`, the IkBa stabilization activation was inconclusive: -1.75% [signal inhibitor].
For `COc1ccccc1CNC(=O)c1ccc(C)c(-n2cnc3cccnc32)c1`, the IkBa stabilization activation was inconclusive: -0.0795% [signal inhibitor].
In the case of `Cc1occc1-c1nnc(SCC(=O)c2cc3ccccc3oc2=O)o1`, the Potency is reported as inconclusive: 7.94 µM [signal inhibitor, partial curve].
In the case of `COc1ncc2nc(C)c(=O)n(Cc3cccs3)c2n1`, the IkBa stabilization activation is reported as inactive: 0.149% [at 11.4 µM, scaled: untreated 0%, proteasome inhibitor 100%].
For `C/C=C/CSc1nc2c(c(=O)[nH]c(=O)n2C)n1CCC`, the IkBa stabilization activation was “inactive”.
In the case of `CC1CCN(C(=O)C2Cc3ccccc3CN2S(=O)(=O)c2ccc(F)cc2)CC1` (configuration not stated), the IkBa stabilization activation is reported as “inactive”.
For `O=C(O)c1cc(N=Nc2ccc([N+](=O)[O-])cc2)ccc1O`, the IkBa stabilization activation was inactive: 19.9% [at 11.4 µM, scaled: untreated 0%, proteasome inhibitor 100%] and the Potency was inconclusive: 25.1 µM [signal inhibitor, partial curve].
With `COc1ccc(-c2cc(C(=O)NCc3ccc(Cl)cc3)no2)cc1OC` the Potency was inconclusive: 15.8 µM [signal inhibitor, partial curve].
In the case of `CCOC(=O)c1ccc(NC(=O)C2Cc3ccccc3CN2S(=O)(=O)c2ccc(Cl)cc2)cc1` (configuration not stated), the IkBa stabilization activation is reported as “inactive”.
For `COc1ccc(Cl)cc1NS(=O)(=O)c1cc(-c2cc(C)no2)ccc1C`, the IkBa stabilization activation was inconclusive: 7.86% [signal activator].
For `Cc1cc(C)c(Cn2c(C)c(CNCCCc3ccccc3)c(C(=O)O)c2C)c(C)c1`, the IkBa stabilization activation was inconclusive: -1.79% [signal inhibitor].
With `Cc1ccc(C)c(N2CCN(C(=O)CN3C(=O)COc4ccc(S(=O)(=O)N5CCCCCC5)cc43)CC2)c1` the IkBa stabilization activation was inconclusive: 0.578% [signal inhibitor].
For `O=C1c2ccccc2C(=O)N1Cc1nc2ccccc2o1`, the IkBa stabilization activation was “inactive”.
In the case of `COc1ccc(-c2nnc(-c3cccs3)o2)cc1OC`, the IkBa stabilization activation is reported as inconclusive: 4.97% [signal inhibitor].
With `COc1ccc(-c2oc3ccc(C)cc3c(=O)c2O)cc1OC` the IkBa stabilization activation was inactive: -2.18% [at 11.4 µM, scaled: untreated 0%, proteasome inhibitor 100%].
In the case of `Cc1ccc(C(C(=O)NC(C)(C)C)N(CC2CCCO2)C(=O)Cn2nnc(-c3ccc(C)o3)n2)cc1` (configuration not stated), the IkBa stabilization activation is reported as “inactive”.
With `CCC1CN(C(=O)N2CCC(C(=O)NCc3ccc(C)o3)CC2)c2cc(C)ccc2O1` (configuration not stated) the IkBa stabilization activation was inconclusive: -0.739% [signal inhibitor].
With `Cc1nn(C)c(C)c1CN(C)C(=O)c1cc2nc(-c3ccco3)cc(C(F)(F)F)n2n1` the IkBa stabilization activation was “inactive”.
With `CCS(=O)(=O)c1ncc(N(Cc2ccco2)Cc2sccc2C)c(C(=O)Nc2cc(C)ccc2C)n1` the IkBa stabilization activation was “inactive”.
With `CCOC(=O)c1ccc(NC(=O)Nc2ccc3c(c2)OCCO3)cc1` the IkBa stabilization activation was inconclusive: -1.49% [signal inhibitor].
For `CC[C@H](NC(=O)c1c(C)c(-c2ccccc2)nc2ccccc12)c1ccccc1`, the IkBa stabilization activation was inconclusive: 1.09% [signal inhibitor].
In the case of `COc1ccc(C(=O)NCCc2sc(-c3cccc(F)c3)nc2C)cc1`, the IkBa stabilization activation is reported as inconclusive: 3.88% [signal inhibitor].
In the case of `Cc1ccccc1NS(=O)(=O)c1ccc2[nH]cc(C(=O)N3CCCC3)c(=O)c2c1`, the IkBa stabilization activation is reported as “inactive”.
In the case of `COCCCn1c2nc3ccccc3nc2c2c(=O)n(Cc3ccc(Cl)cc3)cnc21`, the IkBa stabilization activation is reported as “inactive”.
For `Cc1nc2ccn(Cc3cccnc3)c(=O)c2cc1C(=O)Nc1ccc(OC(F)(F)F)cc1`, the IkBa stabilization activation was inconclusive: 1.91% [signal inhibitor].
For `O=S(=O)(Nc1cccc(-c2ccc(N3CCCCC3)nn2)c1)c1cccs1`, the IkBa stabilization activation was “inactive”.
For `COCC(C)NC(=O)c1cc(-c2ccccc2OC)on1` (configuration not stated), the Potency was inconclusive: 5.01 µM [signal inhibitor, partial curve].
With `CC1CCc2nc(NC(=O)COc3ccc(C(C)(C)C)cc3)sc2C1` (configuration not stated) the IkBa stabilization activation was inconclusive: -2.03% [signal inhibitor].
With `CC(=O)c1cccc(NC(=O)CCS(=O)(=O)c2cc(Br)cc3c2N(C(=O)C2CC2)CC3)c1` the IkBa stabilization activation was inconclusive: 4.15% [signal inhibitor].
With `CCOc1nc(-c2ccc(OC)cc2)ccc1-c1noc(C)n1` the IkBa stabilization activation was “inactive”.
For `CC(C)(C)NC(=O)CN(C(=O)CS(=O)CC(=O)Nc1ccc(F)cc1)c1ccc(Cl)cc1` (configuration not stated), the IkBa stabilization activation was inconclusive: 3.88% [signal inhibitor].
For `Cc1ccc(-c2cc(C(F)F)n3ncc(C(=O)N4CCN5CCCC5C4)c3n2)cc1` (configuration not stated), the IkBa stabilization activation was “inactive”.
With `CCCCN(C)c1ncnc2c1cnn2-c1cccc(Cl)c1` the IkBa stabilization activation was “inactive”.
With `COc1cc(CNc2nc3ccccc3[nH]2)cc(OC)c1OC` the IkBa stabilization activation was “inactive”.
In the case of `CCOC(=O)c1cc(-c2ccc3c(c2)OCCO3)nc2c1c(C)nn2CCC#N`, the IkBa stabilization activation is reported as “inactive”.
With `COc1ccc(OC)c(CCNC(=O)C(C)n2nc(C)c3c(C)n(-c4ccc(C)cc4)nc3c2=O)c1` (configuration not stated) the IkBa stabilization activation was inconclusive: 1.15% [signal inhibitor].
With `Cc1ccc2c(CSc3nc4ccccc4c(=O)n3CCCO)cc(=O)oc2c1` the IkBa stabilization activation was “inactive”.
For `CCOc1ccccc1NC(=O)C1CCCN(S(=O)(=O)c2ccc3c(c2)CCCN3C(C)=O)C1` (configuration not stated), the IkBa stabilization activation was inconclusive: -1.31% [signal inhibitor].
For `CCc1ccc(S(=O)(=O)c2nnn3c2nc(Nc2cccc(C)c2C)c2sccc23)cc1`, the IkBa stabilization activation was inconclusive: -0.346% [signal inhibitor].
In the case of `COc1cc(-c2nnc(SCC(=O)N3CCCc4ccccc43)o2)cc(OC)c1OC`, the IkBa stabilization activation is reported as inconclusive: 7.96% [signal inhibitor].

Reference: PubChem BioAssay AID445 (National Center for Advancing Translational Sciences (NCATS), 2006)
Potency means the concentration at half of the fitted maximal effect.
